For the assay, the target named is HA-CaM (UniProt P0DP23). Nature of the assay: co-IP; co-immunoprecipitation with CaM in the presence of Ca2+.

In the case of “Myc-IQGAP1 (pCDNA3-Myc-IQGAP1) (a stretch of the chain, chain not printed) (natural protein; other documents disagree on this pair)”, the relative band density (in Ca2+, against Ca2+-free = 1.0) (relative to the first band) came to 0.65.

(Values after publication PMC10232262.)
